In the supplement of paper PMC11417369:
± gives the standard deviation of the averaged measurements. The list shows a part of the results.

These sequences were tested on PfAP2-G AP2 domain (GST-tagged) (assay: gcPBM binding intensity (ln(normalized median fluorescence intensity)); higher = stronger DNA binding).
Outline: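 For binding intensity, the highest Masliner-normalised natural-log median intensity across replicate spots of either probe orientation was taken. Protein bound to the array was stained with Alexa488 anti-GST antibody and scanned at 488 nm. The protein, GST-tagged P. falciparum DNA-binding domains from E. coli at about 25 μg on average, had been applied for 1 h to an Agilent 4 × 180k array of primer-extended double-stranded 36-bp intergenic genomic probes and negative controls.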

In order of falling “gcPBM binding intensity (ln)” value:
1. TTTTTTTTATTAGTGTGTACGCATTTATTTATACAT [XGTACX_site1599]  11.7 ± 0.88
2. ATACAATAAAGGTGTACACATATATGATGCAAGATG [CACACA_site5897]  11.7 ± 0.93
3. ATAAATGAAAAAAAGCGTACATATAAAAAAATATAT [XGTACX_site5063]  11.6 ± 1
4. ATATAAATATATGGAAGTACACAAAAAAATTAAAAA [XGTACX_site8624]  11.6 ± 0.76
5. ATTTTTTTTATTCAATGTACTTTTTTTTATATATAT [XGTACX_site4978]  11.5 ± 0.86
6. ATTGTTCTATGATTTGTACACACTTTTTTTTAAAAT [CACACA_site2825]  11.5 ± 0.88
7. AAACGTACATAATACACACACATGTATCCATATAAA [CACACA_site5173]  11.4 ± 0.94
8. ATATATATATATATATGTACACATATATGTGTTTGT [XGTACX_site62]  11.4 ± 0.88
9. ATATATATTTTTTAATGTACTTATATTTTTATAATA [XGTACX_site2103]  11.4 ± 0.79
10. TAGGAAGAATTACTGTGTACTAAAATATTAAAAAGT [XGTACX_site4909]  11.4 ± 0.88
11. TGTAAATAATATAATAGTACGCATATTTTTATTGAA [XGTACX_site284]  11.4 ± 0.78
12. GTATGTATGTATGTATGTACTTATGTAGTCTTAGTT [XGTACX_site1710]  11.3 ± 0.85
13. ATTTATAATCAGGGTTGTACACTTATAGAATTTTTA [XGTACX_site4175]  11.3 ± 0.9
14. TATTAAGAATTTACATGTACTTGTTAAATAAGAAAA [XGTACX_site4466]  11.3 ± 0.73
15. ATATATATATATAAAAGTACATGCTTATATATATAT [XGTACX_site3786]  11.2 ± 0.97
16. AATAAAATGAGATGTTGTACAGTTTTGATATATGCA [XGTACX_site3052]  11.2 ± 0.61
17. TTAATAAACCTTAGATGTACAGTTATATATAAAATA [XGTACX_site6681]  11.2 ± 0.78
18. TTTAAAAATGCTACATGTACAAAATAAAATATAATA [XGTACX_site2905]  11 ± 0.53
19. TTCAAATATTTTATTTGTACATAAAAAAGAAAGTTA [XGTACX_site8287]  11 ± 0.68
20. TTTAAATTATGAAATTGTACATATAAAAATATTTTA [XGTACX_site4796]  10.9 ± 0.54
21. TAAAAAATAAAATGGACACACACGTTCAAATTTAGA [CACACA_site2083]  10.8 ± 0.49
22. TGTTTATGTATCAATTGTACAAAAAAAAAAAAAAAA [XGTACX_site1590]  10.8 ± 0.8
23. TATATTTATACATATTGTACATTTTATACTTTTACA [XGTACX_site3884]  10.8 ± 0.4
24. TATTCAGGTCCAATGGTGCAATATATTTTTGTAATA [GTGCAC_site9607]  10.5 ± 0.47
25. CATATAAAAATATGCACACACAGGAATACAAACATA [CACACA_site684]  10.4 ± 0.13
26. ACTTACCCATTTATTACACACATAAAGGAAAATTTT [CACACA_site4873]  10.4 ± 0.23
27. TACTTACCAAAATACACACACACACCCAATATATAA [CACACA_site1871]  10.3 ± 0.2
28. TGAACTCACGAGCACACACACACATATATATATATA [CACACA_site8248]  10.3 ± 0.18
29. GGTCATATTTTTTGCACACAAAAAAAAATATAAAAT [CACACA_site3381]  10.3 ± 0.2
30. AATCTTCATACCAACACATGCACAAAAGAAATAAAA [TGCATGCA_site563]  10.3 ± 0.39
31. TATATAAACATACATACACACATACAATAAGTAAAA [CACACA_site5118]  10.2 ± 0.28
32. CACCCACTAATAAACACACACATATATATATATATA [CACACA_site389]  10.2 ± 0.33
33. TACAAAATATATATGACACACATAAAAAAAAGTATA [CACACA_site1373]  10.2 ± 0.18
34. ACCTAAGAACTATTTACACACATATACAAAATATAT [CACACA_site2459]  10.2 ± 0.19
35. AGTGTAGGTATATAAACACACATACAGATATATAAT [CACACA_site4900]  10.2 ± 0.15
36. CTTATGTGCATACCTACACACTTACAGATATATATA [CACACA_site5622]  10.2 ± 0.24
37. AAGTTTATCACAGCCACGCACACATAATATATGTAT [CACACA_site3670]  10.1 ± 0.071
38. TTCAAAAAAATGTATACACACATAAGTATAATATAA [CACACA_site3758]  10.08 ± 0.057
39. CATAAGAAAATAAAAACATGCACATAAGAAATATAC [TGCATGCA_site842]  10.12 ± 0.014
40. AATTAAACTCACACCACACACAAAAAAAAAAAAAAA [CACACA_site693]  10 ± 0.59
41. GATTTTTTTTTTTTTTCACACACTAATAATATTATC [CACACA_site464]  9.9
42. TATATATTATTTAAAACACACAAAAAAAAAAATTAT [CACACA_site89]  9.895 ± 0.021
43. AGCAATTGTGTTTTCACACATAAATATATTCCTCAC [CACACA_site5021]  9.88 ± 0.13
44. AATAAAAAACTACAATATACAAAATTATTAAATCAA [GTGCAC_negctrl_site703]  9.56 ± 0.35
